Results published in paper PMC4336329 (PLoS ONE, 2015).
Hit rate of the full screen: of about 310,000 compounds, about 14,000 (4.5%) showed an effect of 50% or more. Effects have a minus sign here. The list shows a part of the results.

molecular target: human ether-à-go-go-related gene (hERG) potassium channel (human, UniProt Q12809); test: primary screen, population patch clamp on CHO cells stably expressing hERG
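Note: peak tail current of the secondary pulse compared with the same well before compound.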

Sequence of human ether-à-go-go-related gene (hERG) potassium channel (Q12809 whole entry, looked up): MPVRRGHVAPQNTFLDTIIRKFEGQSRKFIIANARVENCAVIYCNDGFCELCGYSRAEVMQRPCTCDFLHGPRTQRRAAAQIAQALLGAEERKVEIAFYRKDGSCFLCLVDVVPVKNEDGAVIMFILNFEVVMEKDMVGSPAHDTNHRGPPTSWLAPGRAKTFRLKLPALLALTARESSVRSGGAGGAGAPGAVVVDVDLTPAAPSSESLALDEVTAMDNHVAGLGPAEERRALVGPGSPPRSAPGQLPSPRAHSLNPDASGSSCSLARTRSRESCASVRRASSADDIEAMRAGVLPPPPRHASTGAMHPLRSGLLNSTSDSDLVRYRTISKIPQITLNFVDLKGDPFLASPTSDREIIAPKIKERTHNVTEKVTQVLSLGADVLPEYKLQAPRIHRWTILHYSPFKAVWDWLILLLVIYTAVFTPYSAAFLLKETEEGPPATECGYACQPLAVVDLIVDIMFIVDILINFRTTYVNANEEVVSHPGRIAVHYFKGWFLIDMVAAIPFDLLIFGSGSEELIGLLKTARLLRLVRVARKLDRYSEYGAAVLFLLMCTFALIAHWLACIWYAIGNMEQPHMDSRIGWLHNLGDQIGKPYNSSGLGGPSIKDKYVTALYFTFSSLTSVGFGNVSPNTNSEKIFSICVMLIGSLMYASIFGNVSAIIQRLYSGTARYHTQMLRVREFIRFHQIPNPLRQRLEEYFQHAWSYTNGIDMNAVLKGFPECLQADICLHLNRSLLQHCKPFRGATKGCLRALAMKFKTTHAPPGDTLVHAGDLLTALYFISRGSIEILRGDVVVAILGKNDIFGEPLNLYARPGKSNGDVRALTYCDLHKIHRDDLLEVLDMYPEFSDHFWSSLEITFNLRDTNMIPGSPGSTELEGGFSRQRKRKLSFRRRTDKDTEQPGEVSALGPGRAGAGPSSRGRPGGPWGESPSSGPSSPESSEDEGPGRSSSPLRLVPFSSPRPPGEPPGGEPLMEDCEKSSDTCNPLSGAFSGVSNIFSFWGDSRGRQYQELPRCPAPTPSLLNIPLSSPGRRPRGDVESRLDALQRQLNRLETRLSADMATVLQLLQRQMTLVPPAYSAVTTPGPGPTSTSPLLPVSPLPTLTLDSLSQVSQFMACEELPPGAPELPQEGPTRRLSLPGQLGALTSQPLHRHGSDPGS

Row | Compound | hERG current change (%, negative = inhibition) at 10uM
1 | Cc1c(S(=O)(=O)N2CCOCC2)c(=O)n(C)c(=O)n1C | -0.466%
2 | CC(/C=N/NC(=O)Cc1cc(=O)[nH][nH]1)=C\c1ccccc1 | 10.5%
3 | c1ccc(CC2CCN(c3nc4ccccc4n4nnnc34)CC2)cc1 | 8.23%
4 | Cc1onc(-c2ccccc2)c1C(=O)N1CCCC(C(F)(F)F)C1 (centres unmarked) | -17.7%
5 | O=C(C1CCC(=O)N1Cc1cccnc1)N1CCN(c2ccc(F)cc2)CC1 (centres unmarked) | -2.7%
6 | Cc1ccc(S(C)(=O)=O)cc1C(=O)OCC(=O)N(Cc1ccccc1)Cc1ccccc1 | -13.7%
7 | CC1CC1C(=O)Nc1cc(S(=O)(=O)N2CCOCC2)ccc1N1CCCC1 (centres unmarked) | -12.8%
8 | O=C(CN1C(=O)NC2(CCCC2)C1=O)OCc1ccc(Br)cc1 | 8.87%
9 | Cc1ccc(/C=C/C(=O)NC(=S)Nc2ccccc2C(=O)NC2CCCCC2)cc1 | 16.8%
10 | CCCCc1ccc(NC(=S)NCCc2ccc(F)cc2)cc1 | -7.58%
11 | CC(Oc1cc2oc(=O)c3c(c2cc1Cl)CCC3)C(=O)NCCCn1ccnc1 (centres unmarked) | -30.7%
12 | CCCCCCN(C(=O)CCCCCN1C(=O)NC(c2ccc(-c3ccccc3)cc2)C(C(=O)OCc2ccccc2)=C1C)C(C(=O)NCCCC)c1ccc(OCC(=O)OC)cc1 (centres unmarked) | 18.9%
13 | COc1ccc(-c2cc(C(=O)NCC3CCCO3)c3cc(C(C)C)ccc3n2)cc1 (centres unmarked) | 7.63%
14 | COc1ccccc1C(=O)N(CCN(C)C)c1nc2cc(C)cc(C)c2s1.Cl | -82%
15 | COCCNc1ncnc2c1cnn2-c1ccc(Cl)cc1 | -19%
16 | N#Cc1cn(OCc2ccccc2)c(=O)[nH]c1=O | 16.5%
17 | O=C(COC(=O)COc1ccccc1)NC12CC3CC(CC(C3)C1)C2 | 0.601%
18 | Cc1nc2ccc(S(=O)(=O)NCC(=O)NC(C)c3ccccc3)cc2s1 (centres unmarked) | 21.1%
19 | Clc1ccc(-c2ccc(-c3nn4c(-c5ccco5)nnc4s3)o2)cc1 | 0.523%
20 | CCCn1c(CCC(=O)Nc2ccccc2Cc2ccccc2)nc2cc(S(=O)(=O)N3CCOCC3)ccc21 | -8.86%
21 | Cc1cccn2c(=O)c3cc(C(=O)NCC4CCCO4)c(=N)n(C4CCCCC4)c3nc12 (centres unmarked) | -77.3%
22 | Br.Fc1cccc(CNCC2CCCO2)c1 (centres unmarked) | 19.2%

Row | Compound | hERG current change (%, negative = inhibition) at 10uM
23 | Cc1cccn2c(=O)c3cc(C(=O)NCC4CCCO4)c(=N)n(CCc4ccccc4)c3nc12 (centres unmarked) | -76.7%
24 | COc1ccc(/C=C/C(=O)c2ccc[nH]2)c(OC)c1OC | -4.89%
25 | OC(CNCC1COc2ccccc2O1)COc1ccccc1F (centres unmarked) | 1.11%
26 | Cc1cc(C)c(NC(=O)c2ccc(S(=O)(=O)N3CCOCC3)cc2)c(C)c1 | 3.06%
27 | Cc1cccc(N(CC(=O)NC2CCCC2)C(=O)c2csnn2)c1C | 19.5%
28 | CCc1nnc(NS(=O)(=O)c2ccc(NC(=O)/C=C/c3ccccc3Cl)cc2)s1 | -9.83%
29 | Cl.O=C1CC2(CCCC2)CC(=O)N1CCCCN1CCN(c2ncccn2)CC1 | -35.9%
30 | Cc1ccc(CS(=O)(=O)Cc2ccc(C(=O)NCc3ccco3)o2)cc1 | -32.6%
31 | O=C(Nc1ccc2c(c1)CCC2)c1cc(S(=O)(=O)N2CCN(c3ccccc3)CC2)ccc1Cl | -13.9%
32 | Cc1c(NC(=O)CSc2ccc(Cl)cc2)cccc1-c1nc2cc(Cl)ccc2o1 | 4.73%
33 | CCOC(=O)N1CCN(CC(O)COc2ccc(-c3ccccc3)cc2)CC1.Cl (centres unmarked) | -60.3%
34 | CCOC(=O)C1CCCN(Cc2cccc(Cl)c2)C1 (centres unmarked) | -8.02%
35 | O=C(O)CN(c1ccc2c(c1)OCCO2)S(=O)(=O)c1ccccc1 | -0.421%
36 | COc1cccc(OC)c1NC(=O)CN(C)S(=O)(=O)c1ccc2c(c1)OCCO2 | -5.31%
37 | CC(=O)Nc1ccc(NC(=O)CN(c2ccc(F)cc2)S(=O)(=O)c2ccc3c(c2)OCCO3)cc1 | 15.3%
38 | Cc1ccc(NC(=O)c2cc(NC(=O)/C=C\C(=O)O)ccc2N2CCCCC2)cc1 | -3.11%
39 | CCc1ccccc1NC(=S)N(CCN(C)C)Cc1cccs1 | -22.4%
40 | Cc1cc(OCC(=O)NNC(=S)NCC2CCCO2)cc(C)c1Cl (centres unmarked) | 13.6%
41 | Cc1ccc(OCc2nnc(SCC(=O)O)n2N)cc1 | 22.2%
42 | N#Cc1ccc(Oc2ccc(/C=N/O)cn2)cc1 | -73.7%
43 | CCOC(=O)C1=C(C)Nc2ccccc2N=C1NC(=O)Cc1ccc(OC)cc1 | 13.9%
44 | COc1ccccc1CC(=O)N1CCCc2ccccc21 | 0.493%
